The supplement of paper PMC3334620
The full ranking holds about 33,000 sequences; the median of “E-score (-0.5 to 0.5)” is about -0.04, and the highest 2% start at about 0.36. Some of the results follow.

target: T1, Hmlalpha2 (UniProt P0CY09); assay: PBM E-score (8-mer binding enrichment) (E-score (-0.5 to 0.5)); higher = stronger / more preferred TF binding; most listed sequences are background and not binding sites; settings: protein concentration: 200 nM; construct: GST-full length
T1 sequence: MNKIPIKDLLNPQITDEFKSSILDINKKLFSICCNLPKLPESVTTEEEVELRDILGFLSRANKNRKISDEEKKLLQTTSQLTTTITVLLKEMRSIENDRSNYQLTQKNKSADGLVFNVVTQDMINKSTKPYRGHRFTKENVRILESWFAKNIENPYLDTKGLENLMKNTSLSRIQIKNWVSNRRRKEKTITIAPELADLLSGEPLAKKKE
Method in brief: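 E-scores (a modified Wilcoxon-Mann-Whitney statistic) were assigned by the Universal PBM Analysis Suite to every ungapped eight-base word pooled with its reverse complement. The input came from universal all-10-mer Agilent arrays made double-stranded by primer extension and probed with GST-tagged yeast transcription factors at about 100-200 nM. Fluorescent anti-GST detected bound protein, and masliner normalised the scans.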

Sequence | PBM E-score
TACATATA | 0.374
AGACTAGA | -0.166
TGTTGTAA | 0.401
CCTTGCCC | -0.198
AGCCAAGG | -0.161
AAAACTTA | 0.221
ATAACTTG | 0.217
TCCGTCAA | -0.0303
ATTTACAA | 0.453
AATAACCG | -0.0577
AATTTCAG | -0.0151
ACGGCCCC | -0.437
ACAGCAAG | 0.058
GACGTGAA | -0.0003
AACTAGCC | -0.0814
GAAGCGGC | -0.131
AGGGGGGC | -0.403
CTAGTCGC | -0.164
CTAGACAA | 0.0678
CAGGAACA | 0.0389
GTATTGCA | 0.118
TATATTCA | 0.112
CCAAGTGG | 0.0248
TCTGTGAA | 0.0508
CCCGATAA | -0.0827

Sequence | PBM E-score
TAGTACCA | -0.0256
CAGTTATA | 0.0134
CGCTCGGA | -0.102
AACCCCTC | -0.215
ACCTTCCT | -0.0704
CCGTAGAC | -0.136
CAATAACG | 0.215
CATCAGCG | 0.0761
CAAAAAAA | 0.0591
TACGCTAA | 0.236
ACGTGTTC | 0.211
TATATGGA | -0.137
AGTTCCAC | 0.0103
ATCCAAAC | 0.0909
CGGCGCGC | -0.205
AACCAGCC | -0.0281
AGATTCAC | -0.00821
TAGGCCGA | -0.269
CTTATTTA | 0.066
AAAAGGTC | -0.0222
CGAGTGGA | -0.137
CTGTTTTA | 0.0458
CAACATGC | 0.398
CCAATACC | -0.111
GCACCGGA | -0.273

Sequence | PBM E-score
CGTCCGTA | 0.00793
ACCTAGAT | -0.129
CAACAATC | 0.262
CTTGTCCA | -0.0934
CAACTCGC | 0.176
CCCTCTAA | -0.218
GTCACAGA | -0.143
ATAGCGAA | 0.0732
CACGTACG | 0.0953
TGAGAGAA | 0.0317
AGACGGTC | -0.222
AACGGGAC | -0.23
TGTTCTAA | 0.236
CACCCCGA | -0.258
GCACGTCC | -0.0501
CGCGCGCA | 0.0221
ATCCTCGC | -0.199
ACCCGGGC | -0.235
ATAAGCAG | -0.00191
ACTATACC | 0.00961
CGTACGGA | -0.126
GTTGACCA | 0.038
AAGTTACT | 0.0608
CCTAGAGG | -0.202
TCAATACA | 0.372

Sequence | PBM E-score
AGCGAGTG | 0.107
AAGAGTCA | -0.00825
AATGAAAG | 0.0405
ATAACACC | 0.259
GTGTGCTA | 0.0731
ATATCTCG | -0.151
CATGCGTC | 0.0587
AGCCGAGC | -0.209
GAGCGAAC | -0.14
GAGCGTCA | -0.107
CGGTATGA | 0.058
GGTGTCTA | 0.221
AGATTAAG | 0.0165
GGGTGAAA | 0.0237
AGGGTAGC | -0.247
AGTCGACG | 0.111
TGGCGCAA | -0.199
GCCGTGAA | -0.197
ATTAACTC | 0.216
AGAGCACC | -0.269
ACGTGATA | 0.163
AAAAAAGA | 0.0142
CTACTCGA | 0.126
AATTAGCA | 0.137
TCACCGAA | 0.0184

Sequence | PBM E-score
AGCGGACA | -0.196
ACATAAAC | 0.337
TCGCCAGA | -0.216
ATTAACGC | 0.372
AATAAACC | -0.0152
CATACTCG | -2e-05
AGACAGCA | -0.135
ACCGAAAG | 0.0654
AAGTGTTA | 0.276
TACTACAA | 0.299
ACACGAGA | 0.291
CAGTCCAA | -0.263
ATGGGCCA | 0.0731
AATATAAC | 0.207
AAATGGTT | 0.0603
CGCCCGAC | -0.151
CTAGTACC | 0.0958
ACGAGAAG | 0.0151
GTAGGATA | 0.0408
AATCCACG | -0.0225
TAAGCATA | 0.115
ATGAAGTC | -0.115
CGACGGGC | -0.031
CATTCGCG | -0.0123
CTAACGGC | -0.09

Sequence | PBM E-score
CAAGCATG | 0.119
ACCTTAAT | 0.0106
CAATTCAA | 0.0842
AATCGGGC | 0.00681
ATTTAAAT | 0.157
GGATTGCC | -0.29
ACACGAGC | 0.261
ATGACTCG | -0.0578
AACTTAGC | 0.0276
ACAATCCA | 0.0933
AGATAAAG | -0.103
AGTGTTTA | 0.299
CAGCTGCC | -0.273
AGCCAAGA | -0.101
ATTTCGGC | 0.0545
CCCTTTGC | -0.148
AGTGACGG | -0.158
ACTTTGCC | -0.0921
AGAGAAAA | 0.119
GTATATAA | 0.29
ATTGGACG | -0.173
GTCAGTGA | -0.146
TCCGATCA | -0.00767
ACATATAT | 0.27
CACTACGG | -0.246

Sequence | PBM E-score
ACGACGGC | -0.0422
ACCCCTGA | -0.273
AACCCCGG | -0.232
ATGGATTC | -0.0622
CCACATCA | -0.00283
ACTCTGTG | -0.0258
AAGGTCAT | -0.129
CTGTAACA | 0.223
AAAAAAGT | -0.0192
AATTGAGT | 0.127
CGGTGCCC | -0.0869
CAATGTCA | 0.264
ACTATCGG | -0.242
ACGTAATC | 0.392
CTTCCGTA | -0.00688
CCGAGGCG | -0.323
TCACGGCA | -0.0555
TGGACTAA | -0.0654
AGCAAAAA | 0.165
ACACACGT | 0.352
ATCCAAGG | -0.254
GGATGACA | 0.0472
